Test results: PubChem BioAssay (NCI)
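Following 48 hours of exposure in 96-well plates, responses at five concentrations were used to interpolate endpoints linearly. TGI: total growth inhibition.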 For part of its entries the source gives two or more results. The other results are left out here. The source may hold further records. The tests behind the records often covered other concentration ranges, not given here; a value can be the end of its range.

Columns and labels:
CAKI-1 renal = assay: DTP human tumour cell line panel, 48 h
CCRF-CEM leukemia = assay: DTP human tumour cell line panel, 48 h

CN1CCN(Cc2ccc(NC(=O)c3cncc(C#Cc4cnc5ccc(NC6CCOCC6)nn45)c3)cc2C(F)(F)F)CC1
TGI (CAKI-1 renal): 5.35 µM and 246 nM | TGI (CCRF-CEM leukemia): 4.26 µM and 396 nM
